Assay results: article doi:10.1101/2024.03.18.585568 (bioRxiv, 2024)

Target: the molecule itself
Assay: cryo-EM structure

B1: apoGAD65 (glutamate decarboxylase GAD65, […], purified without added PLP) (enzyme)
chain: not shown
stoichiometry N: 2
